In assay [1] the test system is MO7e cells grown in SCF. Description: Mo7e proliferation in the presence of SCF (Cell titer Glo). The conditions noted are these: 5 days, FIG. 15. Type of assay: cell-based, human. The protocol:
To evaluate the potential antagonistic properties of the naked antibodies and the ability of the antibody drug conjugates (ADCs) to inhibit the proliferation of a cKIT-expressing cell line, MO7e (DSMZ, Catalog # ACC-104, Braunschweig, Del.) were grown in the presence or absence of cKIT ligand, Stem Cell Factor (SCF), for survival. MO7e cells were grown in either 10 ng/ml human granulocyte-macrophage colony-stimulating factor GM-CSF (R&D Systems Cat#215-GM, Minneapolis, Minn.) or 10 ng/ml human Stem Cell Factor SCF (R&D Systems Cat#255-SC) prior to seeding in 96 well plates (Costar Cat #3904, Corning, Tewksbury, Mass.) at 5000 cells/well in 100 μl dilution medium. A duplicate plate was generated for a day 0 measurement and all plates were incubated in a tissue culture incubator at 37° C. with 5% CO2 overnight. Following this incubation, an additional 50 μl of dilution medium was added, followed by 90 μl/well of Cell titer Glo® reagent (Promega Cat# G7573, Madison, Wis.) to each well of the designated “day 0” plate. Assay plates were shaken gently for 20 min and the resulting luminescence intensity was measured using a Perkin Elmer 1450 Microbeta TriLux® plate reader (Perkin Elmer, Waltham, Mass.). Test naked Abs and ADCs were prepared at 3× concentration; 30 μg/ml in the appropriate cell culture medium and diluted serially 5-fold for 8 points. Medium only wells were also generated to act as negative controls. 50 μl of 3× serially diluted antibodies or ADCs were added (final assay concentration 0.0009-68 nM) prior to incubation in a tissue culture incubator at 37° C. with 5% CO2 for 5 days. Following this incubation period, relative cell viability was determined via the addition of Cell titer Glo reagent as described above. The effect of the ADCs on cell proliferation was calculated using the average of the duplicates as follows: (% Inhibition=(ADC or Ab treated)/(untreated)*100) The % inhibition data was fitted to a 4-parameter logistic equation and IC50 values were determined.

Assay [2] relates to GIST-T1, GIST430, NCI-H526, NCI-H1048, CMK11-5, Uke-1 cells. Description: In vitro activity of cKIT-MCC-DM1 ADCs on GIST, SCLC and AML cell lines (Cell titer Glo). In kind it is cell-based, human. Conditions: 5 to 8 days, IgG-MCC-DM1 as control, FIGS. 4-9. On the procedure:
Following conjugation to the MCC-DM1 linker-payload, the ability of the antibody drug conjugates (ADCs) to inhibit the proliferation of AML, SCLC and GIST cell lines was determined. For a listing of the cells used in these experiments by supplier see Example 10 above.
Briefly, cells were cultured in a tissue culture incubator at 37° C. with 5% CO2 in culture medium as recommended by the supplier. On the day of the assay, cells were washed twice with PBS (Cellgro, Cat #21-031-CV, Corning Tewksbury, Mass.), prior to being treated with 0.1% trypsin-EDTA (in-house technical services) for 5 min and resuspended in the recommended culture medium. Cells were then counted and seeded in 96 well plates (Costar catalog #3603, Corning, Tewksbury, Mass.) at densities of 5,000 cells/well for AML and SCLC cells and 10,000 cells/well for GIST cells in 100 μl of cell culture medium. A duplicate plate was generated for a day 0 measurement and all plates were incubated in a tissue culture incubator at 37° C. with 5% CO2 overnight. Following this incubation, 100 μl/well of Cell titer Glo® reagent (Promega catalog # G7573, Promega, Madison, Wis.) was added to the day 0 plates, which were then shaken gently for 2 min, incubated for 10 min, and the resulting luminescence intensity was measured using a Perkin Elmer Wallac Microbeta® Trilux plate reader (Perkin Elmer, Waltham, Mass.). Test ADCs were serially diluted to a 3× stock solution in the appropriate cell culture medium and 50 μl of 3× serially diluted ADCs were added (final assay concentration of 0.0002-68 nM DM1 equivalents) prior to incubation in a tissue culture incubator at 37° C. with 5% CO2 for 5 to 8 days. Following this incubation period, relative cell viability was determined via the addition of Cell titer Glo® reagent as described above. The effect of the ADCs on cell proliferation was calculated using the average of the duplicates as follows: (% of maximum affection (AMAX)=(untreated-highest ADC concentration treated)*100).
The % inhibition data was fitted to a 4-parameter logistic equation and GI50 values were determined. […]

In assay [3] the target is rat cKIT ECD. In words: SPR (Biacore 2000) affinity measurement. In kind it is binding. The conditions noted are these: 25° C., antibody captured, ECD in solution. On the procedure:
(§1) Affinity of the antibodies to cKIT species orthologues and also to cKIT was determined using SPR technology using a Biacore® 2000 instrument (GE Healthcare, Pittsburgh, Pa.) and with CM5 sensor chips.
(§2) Briefly, HBS-P (0.01 M HEPES, pH 7.4, 0.15 M NaCl, 0.005% Surfactant P20) supplemented with 2% Odyssey® blocking buffer (Li-Cor Biosciences, Lincoln, Nebr.) was used as the running buffer for all the experiments. The immobilization level and analyte interactions were measured by response unit (RU). Pilot experiments were performed to test and confirm the feasibility of the immobilization of the anti-human Fc antibody (Catalog number BR100839, GE Healthcare, Pittsburgh, Pa.) and the capture of the test antibodies.
(§3) For kinetic measurements, the experiments were performed in which the antibodies were captured to the sensor chip surface via the immobilized anti-human Fc antibody and the ability of the cKIT proteins to bind in free solution was determined Briefly, 25 μg/ml of anti-human Fc antibody at pH 5 was immobilized on a CM5 sensor chip through amine coupling at flow rate of 5 μl/minute on all two flow cells to reach 10,500 RUs. 0.1-1 μg/ml of test antibodies were then injected at 10 μl/min for 1 minute. Captured levels of the antibodies were generally kept below 200 RUs. Subsequently, 3.125-50 nM of cKIT receptor extracellular domains (ECD) were diluted in a 2-fold series and injected at a flow rate of 40 μl/min for 3 min over both reference and test flow cells. Table of tested ECDs is listed below. Dissociation of the binding was followed for 10 min. After each injection cycle, the chip surface was regenerated with 3 M MgCl2 at 10 μl/min for 30 s.

For assay [4], the target named is T1, mouse cKIT ECD (Mus musculus, UniProt P05532).
T1 construct: 3.125-50 nM of cKIT receptor extracellular domains (ECD) were diluted in a 2-fold series
T1 sequence (P05532 25-527 limits assumed): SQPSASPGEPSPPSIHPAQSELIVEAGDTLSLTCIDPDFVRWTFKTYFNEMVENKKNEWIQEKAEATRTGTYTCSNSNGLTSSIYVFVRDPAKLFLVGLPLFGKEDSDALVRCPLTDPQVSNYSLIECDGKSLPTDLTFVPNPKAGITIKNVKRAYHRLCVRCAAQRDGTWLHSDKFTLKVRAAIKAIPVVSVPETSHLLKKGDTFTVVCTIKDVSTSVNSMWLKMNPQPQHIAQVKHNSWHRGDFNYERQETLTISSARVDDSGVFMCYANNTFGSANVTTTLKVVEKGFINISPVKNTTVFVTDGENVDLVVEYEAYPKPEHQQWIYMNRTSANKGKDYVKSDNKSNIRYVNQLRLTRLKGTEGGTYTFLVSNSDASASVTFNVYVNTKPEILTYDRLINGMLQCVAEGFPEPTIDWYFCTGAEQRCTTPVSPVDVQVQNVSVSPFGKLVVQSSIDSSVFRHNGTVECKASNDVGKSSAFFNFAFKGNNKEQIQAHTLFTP
Description: SPR (Biacore 2000) affinity measurement. Type of assay: binding. Conditions: 25° C., antibody captured, ECD in solution. On the procedure:
as §1, §2, §3

B1: NEG024 (antibody)
heavy: EVQLVESGGGLVQPGGSLRLSCAASGFTFSDYYMAWVRQAPGKGLEWVANINQIAGSTYYLDSVRGRFTISRDNAKNSLYLQMNSLRAEDTAVYYCARGDYYGTTYWYFDVWGQGTTVTVSSASTKGPSVFPLAPSSKSTSGGTAALGCLVKDYFPEPVTVSWNSGALTSGVHTFPAVLQSSGLYSLSSVVTVPSSSLGTQTYICNVNHKPSNTKVDKRV[human IgG1 Fc omitted here]
light: EIVMTQSPATLSLSPGERATLSCRASQDISNYLNWYQQKPGQAPRLLIYYTSRLQSGIPARFSGSGSGTDYTLTISSLEPEDFAVYYCQQGKKLWSFGGGTKVEIKRTVAAPSVFIFPPSDEQLKSGTASVVCLLNNFYPREAKVQWKVDNALQSGNSQESVTEQDSKDSTYSLSSTLTLSKADYEKHKVYACEVTHQGLSSPVTKSFNRGEC
Turning to B1, the results for the “inhibition of cell proliferation” value in assay [1] and in assay [2] were “do not have this effect” and “very effective in reducing cell proliferation”, respectively. Besides, the “Affinity to rat cKIT” value in assay [3] was “Not reactive”. In addition, the “Affinity mouse cKIT” value in assay [4] is listed as “Not reactive”.

Values taken from patent US9789203B2, “cKIT antibody drug conjugates” (Novartis AG, priority 2013, dated 2017).
